In the supplement of paper PMC10126150:
Values marked as one replicate rest on one cluster of the flow cell; about a third of the high ones do not repeat.

Tested on: ATP
Experiment: switch fluorescence ratio, 500 uM ATP over buffer (Cy3 cluster intensity, sum of 5 cycles each) (fold (ratio)); higher = stronger signal-on switching upon ATP binding; sequences stand for … in TCGTCGGCAGCGTCAGATGTGTATAAGAGACAGTTTTTTTTTTTTTTTTTTTTTTTTT…TC
Conditions: aptamer strand: ATP DNA aptamer (quencher-CACCTGGGGGAGTATTGCGGAGGAAGG + anchor), 100 nM annealed; ATP concentration: 500 uM; one replicate
Procedure, shortened: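 Imaging in selection buffer was followed by imaging after 15 min with 500 uM ATP at 22 °C, for Cy3-labelled switching-strand clusters annealed to 100 nM quencher-labelled ATP aptamer on a modified Illumina MiSeq flow-cell. Five of these buffer/ATP cycles ran, separated by NaOH stripping and re-annealing. The fluorescence ratio per cluster is summed target-cycle over summed buffer-cycle Cy3 intensity, averaged per switch-domain sequence; clusters outside 100-1000 RFU were removed.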
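Also: ATP exposure 15 min at 22 °C before imaging.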

CAACCACGTC
switch fluorescence ratio: 1.15

TCAAATTTAC
switch fluorescence ratio: 1.14

TATAGTTCCT
switch fluorescence ratio: 1.02

GATATCTATG
switch fluorescence ratio: 1.01

TTGTGTCCAC
switch fluorescence ratio: 0.984

TACTATGTTA
switch fluorescence ratio: 1.02

ACCTGCATTA
switch fluorescence ratio: 1.43

GAGATTTGTT
switch fluorescence ratio: 1

TATCTCGGTG
switch fluorescence ratio: 1.03

GATAGCGCCG
switch fluorescence ratio: 1.05

TATCCTGGGC
switch fluorescence ratio: 1.05

TATGTACAGC
switch fluorescence ratio: 1.04

GAATCAAGTC
switch fluorescence ratio: 0.978

GCATTGCGGT
switch fluorescence ratio: 1.02

ACCAACGGAC
switch fluorescence ratio: 1.37

GGCCGGCGTT
switch fluorescence ratio: 1.02

GCTTTGTGCT
switch fluorescence ratio: 0.984

TGGTGAAAAC
switch fluorescence ratio: 1.02

TACTAAGACG
switch fluorescence ratio: 1.08

TATGACAGCC
switch fluorescence ratio: 1.08

ACGAGCCACG
switch fluorescence ratio: 1.03

CGATATCAGT
switch fluorescence ratio: 0.96

TGCGGGTGCA
switch fluorescence ratio: 0.995

CATCCCCGT
switch fluorescence ratio: 1.05

ATCAAATTGG
switch fluorescence ratio: 1.06

CTTTTATTAC
switch fluorescence ratio: 1.08

ACTTAGGCAT
switch fluorescence ratio: 1.11

AATGTGGGCG
switch fluorescence ratio: 0.98

CGGTAGAGCG
switch fluorescence ratio: 0.946

CTAGCAGACT
switch fluorescence ratio: 1.17

ATTTAACGT
switch fluorescence ratio: 0.996

TCAGCCACTA
switch fluorescence ratio: 1.06

ATCTAATGTG
switch fluorescence ratio: 0.968

AGAACCATA
switch fluorescence ratio: 1

GATACGGGAA
switch fluorescence ratio: 1.06

CAGAAATAAC
switch fluorescence ratio: 1.07

GAAATCGGAA
switch fluorescence ratio: 1.01

TGTTCCTTAA
switch fluorescence ratio: 1

AGCTGGATTC
switch fluorescence ratio: 1.01

GGCCGGAGTT
switch fluorescence ratio: 1.03

GCTTGTTAGG
switch fluorescence ratio: 0.978

CCGTATACTG
switch fluorescence ratio: 1.19

TGTTGGTGTG
switch fluorescence ratio: 1.03

TTCTACGTCA
switch fluorescence ratio: 1.26

AGCCGCGGGT
switch fluorescence ratio: 1.07

ATCTAGTAGG
switch fluorescence ratio: 0.973

GGGACGAGAG
switch fluorescence ratio: 1.03

AATAACATAT
switch fluorescence ratio: 1.24

TCTTGGATCC
switch fluorescence ratio: 1.01

CGTTGGTGTA
switch fluorescence ratio: 0.964

CGTATTTTTG
switch fluorescence ratio: 0.994

GCTCGGGAGG
switch fluorescence ratio: 0.966

AGTGAGCGTT
switch fluorescence ratio: 1.04

CGTATGCAGC
switch fluorescence ratio: 1

TTGTAGCTGG
switch fluorescence ratio: 1.02

GCATGCTTCG
switch fluorescence ratio: 1

GTAGGTAAAA
switch fluorescence ratio: 0.982

CCAATGTTG
switch fluorescence ratio: 1.01

CTCCTGGGCG
switch fluorescence ratio: 1.04

CGTGTTAGAT
switch fluorescence ratio: 0.977

AATCAGGAGC
switch fluorescence ratio: 0.967

TGCAGATGAA
switch fluorescence ratio: 0.99

TGGATGCAGT
switch fluorescence ratio: 0.947

AACAAGAGGC
switch fluorescence ratio: 0.976

CTGGCATGAA
switch fluorescence ratio: 1

GCCGCCCTAT
switch fluorescence ratio: 1.06

GGTGTGGGA
switch fluorescence ratio: 0.989

CAGGTCTGTT
switch fluorescence ratio: 0.979

CGCCTACAG
switch fluorescence ratio: 1.08

GAATAGTCGC
switch fluorescence ratio: 0.984

ACCAAGGTCA
switch fluorescence ratio: 0.96

GGGCAGGAGT
switch fluorescence ratio: 1

CTTAATTGGG
switch fluorescence ratio: 0.925

GACAGATGGC
switch fluorescence ratio: 0.956

GCGCTTGTTC
switch fluorescence ratio: 1.01

GTGTACCCT
switch fluorescence ratio: 1.02

GGGCTCGTTT
switch fluorescence ratio: 0.974

CATGGTGTCT
switch fluorescence ratio: 0.98

AGTGACAGG
switch fluorescence ratio: 0.989

GCACGGGAGA
switch fluorescence ratio: 1.03

TTTCTGAGTC
switch fluorescence ratio: 1.04

CGGGTGGAGT
switch fluorescence ratio: 0.983

CCACCCGGAT
switch fluorescence ratio: 1.13

TATCGTTACG
switch fluorescence ratio: 1.05

TCGCGTCCGT
switch fluorescence ratio: 1.01

ATGGGTGCTA
switch fluorescence ratio: 0.955

CCATGGTGGG
switch fluorescence ratio: 1.02

CCTATGCCGT
switch fluorescence ratio: 1.03

TCTTTAAGAG
switch fluorescence ratio: 0.996

TATTCGCATT
switch fluorescence ratio: 1.37

TTGTAAACGT
switch fluorescence ratio: 1.01

TCGGCTTGAC
switch fluorescence ratio: 1.01

GCTTTCGCCA
switch fluorescence ratio: 1.13

CGGCCCCGAC
switch fluorescence ratio: 1.05

CGTGAGTGAA
switch fluorescence ratio: 1.03

CGCCTAACT
switch fluorescence ratio: 1.17

GTTTCGGGGC
switch fluorescence ratio: 0.977

GAGTGACTTC
switch fluorescence ratio: 1

GCATCCCCT
switch fluorescence ratio: 1.13

ATGCCCCCGT
switch fluorescence ratio: 1

AAGTCCATGA
switch fluorescence ratio: 0.953
